From paper PMC7408610
These are yes or no findings as the source states them, for the method shown. In cells and extracts the contact can be indirect. Some binding calls cover weakened binding; strength is not graded here. For some of these results: Tags and fused reporters may be left off the sequences shown.

Assays:
HA-Tim-4 [1] = molecular target: T1, HA-Tim-4 (UniProt Q6U7R4); test: co-IP; lysates of transfected 293T cells with anti-FLAG agarose beads in the presence of purified GST-Mertk^FnIII or GST; the purified competitor against Tim-4 in the lysate; only the binder purified
T1 sequence: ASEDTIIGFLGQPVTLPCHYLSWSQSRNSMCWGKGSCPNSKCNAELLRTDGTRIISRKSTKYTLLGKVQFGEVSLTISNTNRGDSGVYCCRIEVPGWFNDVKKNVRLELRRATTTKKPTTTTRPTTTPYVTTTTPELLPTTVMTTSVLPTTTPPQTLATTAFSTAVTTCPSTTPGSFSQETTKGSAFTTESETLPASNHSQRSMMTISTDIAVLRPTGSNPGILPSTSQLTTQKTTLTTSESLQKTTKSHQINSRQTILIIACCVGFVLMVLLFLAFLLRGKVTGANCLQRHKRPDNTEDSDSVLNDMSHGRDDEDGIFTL

Tim-4^ECR-FLAG = molecular target: T2, Tim-4^ECR-FLAG (UniProt Q6U7R4); test: co-IP; 293T cells co-transfected, lysed 2 d later; anti-FLAG agarose beads, or anti-Tim-4 tail or anti-GFP antibody with protein A/G beads, 4 °C for 2 h; immunoblot; also after treatment of the cells with LDC1267 (Figure S1)
T2 sequence: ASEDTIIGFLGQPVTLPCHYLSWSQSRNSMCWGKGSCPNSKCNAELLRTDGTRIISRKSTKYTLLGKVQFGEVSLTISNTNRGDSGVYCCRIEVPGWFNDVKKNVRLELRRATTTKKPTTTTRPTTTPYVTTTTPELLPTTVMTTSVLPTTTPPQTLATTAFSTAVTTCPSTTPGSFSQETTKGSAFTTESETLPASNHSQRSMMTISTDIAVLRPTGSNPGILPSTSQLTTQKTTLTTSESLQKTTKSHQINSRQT

Mertk-FLAG (mouse) [2] = molecular target: T3, Mertk-FLAG (mouse) (UniProt Q60805); test: proximity ligation; LR73 cells transfected, fixed, permeabilised; anti-FLAG and anti-Tim-4 tail antibodies, Duolink probes; confocal microscopy
T3 sequence: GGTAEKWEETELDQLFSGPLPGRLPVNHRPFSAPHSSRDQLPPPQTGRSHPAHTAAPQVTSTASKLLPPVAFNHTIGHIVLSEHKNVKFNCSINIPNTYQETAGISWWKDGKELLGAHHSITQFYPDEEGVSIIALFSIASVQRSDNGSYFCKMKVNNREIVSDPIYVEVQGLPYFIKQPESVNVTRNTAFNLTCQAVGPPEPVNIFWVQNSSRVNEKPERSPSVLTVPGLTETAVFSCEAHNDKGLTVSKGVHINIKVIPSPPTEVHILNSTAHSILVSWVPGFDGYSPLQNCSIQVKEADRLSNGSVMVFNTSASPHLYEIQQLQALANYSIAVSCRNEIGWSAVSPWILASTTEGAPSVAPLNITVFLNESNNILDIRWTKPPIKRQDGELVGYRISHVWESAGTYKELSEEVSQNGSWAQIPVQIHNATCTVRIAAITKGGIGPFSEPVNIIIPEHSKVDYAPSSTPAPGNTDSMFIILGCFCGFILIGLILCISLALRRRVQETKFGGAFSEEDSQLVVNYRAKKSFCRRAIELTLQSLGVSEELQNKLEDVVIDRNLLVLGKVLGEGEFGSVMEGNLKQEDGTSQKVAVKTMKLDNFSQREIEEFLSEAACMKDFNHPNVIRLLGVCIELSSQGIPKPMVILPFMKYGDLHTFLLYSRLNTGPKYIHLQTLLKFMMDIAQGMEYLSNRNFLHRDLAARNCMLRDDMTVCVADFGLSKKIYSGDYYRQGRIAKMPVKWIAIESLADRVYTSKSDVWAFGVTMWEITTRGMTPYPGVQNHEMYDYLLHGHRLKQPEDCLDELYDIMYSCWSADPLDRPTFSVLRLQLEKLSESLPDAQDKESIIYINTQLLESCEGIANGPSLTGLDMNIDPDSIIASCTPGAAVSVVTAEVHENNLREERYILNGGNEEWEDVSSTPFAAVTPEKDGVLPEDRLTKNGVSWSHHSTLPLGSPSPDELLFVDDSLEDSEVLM

Mertk-FLAG (mouse) [3] = molecular target: T3, Mertk-FLAG (mouse); test: proximity ligation; cells expressing Tim-4 and Mertk in the presence of GST-Mertk^FnIII, against control cells (Figure S5)
Mertk-FLAG (mouse) [4] = molecular target: T3, Mertk-FLAG (mouse); test: co-IP; 293T cells co-transfected, lysed 2 d later; anti-FLAG agarose beads, or anti-Tim-4 tail or anti-GFP antibody with protein A/G beads, 4 °C for 2 h; immunoblot; also after treatment of the cells with LDC1267 (Figure S1)
Mertk-FLAG (mouse) [5] = molecular target: T3, Mertk-FLAG (mouse); test: co-IP; lysates of transfected 293T cells with anti-FLAG agarose beads in the presence of purified GST-Mertk^FnIII or GST; the pair in the lysate
HA-Tim-4 [6] = molecular target: T1, HA-Tim-4; test: co-IP; 293T cells co-transfected, lysed 2 d later; anti-FLAG agarose beads, or anti-Tim-4 tail or anti-GFP antibody with protein A/G beads, 4 °C for 2 h; immunoblot; also after treatment of the cells with LDC1267 (Figure S1)
[7] = molecular target: T4, Tim-4 (endogenous, peritoneal macrophages) (mouse (endogenous in peritoneal macrophages)) (UniProt Q6U7R4); test: co-IP; lysates of peritoneal macrophages, anti-Tim-4 tail antibody or control antibody with protein A/G agarose beads; Mertk detected by immunoblot
T4 sequence: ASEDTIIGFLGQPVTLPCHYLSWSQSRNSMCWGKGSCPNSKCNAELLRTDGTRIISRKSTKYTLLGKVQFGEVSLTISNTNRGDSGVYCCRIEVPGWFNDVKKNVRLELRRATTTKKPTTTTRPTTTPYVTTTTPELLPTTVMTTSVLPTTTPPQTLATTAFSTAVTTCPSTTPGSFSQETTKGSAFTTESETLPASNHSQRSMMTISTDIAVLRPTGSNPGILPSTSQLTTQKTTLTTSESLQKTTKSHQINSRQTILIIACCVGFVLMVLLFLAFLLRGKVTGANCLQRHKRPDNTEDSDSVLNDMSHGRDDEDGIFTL

B1: GST-Mertk^FnIII (domain or fragment, UniProt Q60805 278-497)
chain: IPSPPTEVHILNSTAHSILVSWVPGFDGYSPLQNCSIQVKEADRLSNGSVMVFNTSASPHLYEIQQLQALANYSIAVSCRNEIGWSAVSPWILASTTEGAPSVAPLNITVFLNESNNILDIRWTKPPIKRQDGELVGYRISHVWESAGTYKELSEEVSQNGSWAQIPVQIHNATCTVRIAAITKGGIGPFSEPVNIIIPEHSKVDYAPSSTPAPGNTDSM
Question: For B1, which binding (HA-Tim-4 [1]) is on record?
Answer: binds

B2: Mertk^FnIII (domain or fragment, UniProt Q60805 278-497)
chain: IPSPPTEVHILNSTAHSILVSWVPGFDGYSPLQNCSIQVKEADRLSNGSVMVFNTSASPHLYEIQQLQALANYSIAVSCRNEIGWSAVSPWILASTTEGAPSVAPLNITVFLNESNNILDIRWTKPPIKRQDGELVGYRISHVWESAGTYKELSEEVSQNGSWAQIPVQIHNATCTVRIAAITKGGIGPFSEPVNIIIPEHSKVDYAPSSTPAPGNTDSM
Question: With B2 as the binder, how does the binding (Tim-4^ECR-FLAG) read?
Answer: binds

B3: Mertk^ECR (domain or fragment, UniProt Q60805 19-497)
chain: GGTAEKWEETELDQLFSGPLPGRLPVNHRPFSAPHSSRDQLPPPQTGRSHPAHTAAPQVTSTASKLLPPVAFNHTIGHIVLSEHKNVKFNCSINIPNTYQETAGISWWKDGKELLGAHHSITQFYPDEEGVSIIALFSIASVQRSDNGSYFCKMKVNNREIVSDPIYVEVQGLPYFIKQPESVNVTRNTAFNLTCQAVGPPEPVNIFWVQNSSRVNEKPERSPSVLTVPGLTETAVFSCEAHNDKGLTVSKGVHINIKVIPSPPTEVHILNSTAHSILVSWVPGFDGYSPLQNCSIQVKEADRLSNGSVMVFNTSASPHLYEIQQLQALANYSIAVSCRNEIGWSAVSPWILASTTEGAPSVAPLNITVFLNESNNILDIRWTKPPIKRQDGELVGYRISHVWESAGTYKELSEEVSQNGSWAQIPVQIHNATCTVRIAAITKGGIGPFSEPVNIIIPEHSKVDYAPSSTPAPGNTDSM
Question: How did the binding (Tim-4^ECR-FLAG) turn out when B3 was run?
Answer: binds

B4: HA-Tim-4 (receptor, UniProt Q6U7R4 23-343)
chain: ASEDTIIGFLGQPVTLPCHYLSWSQSRNSMCWGKGSCPNSKCNAELLRTDGTRIISRKSTKYTLLGKVQFGEVSLTISNTNRGDSGVYCCRIEVPGWFNDVKKNVRLELRRATTTKKPTTTTRPTTTPYVTTTTPELLPTTVMTTSVLPTTTPPQTLATTAFSTAVTTCPSTTPGSFSQETTKGSAFTTESETLPASNHSQRSMMTISTDIAVLRPTGSNPGILPSTSQLTTQKTTLTTSESLQKTTKSHQINSRQTILIIACCVGFVLMVLLFLAFLLRGKVTGANCLQRHKRPDNTEDSDSVLNDMSHGRDDEDGIFTL
Question: How did the binding (Mertk-FLAG (mouse) [2]) turn out when B4 was run?
Answer: binds

Question: What about the binding (Mertk-FLAG (mouse) [3]) of the same binder?
Answer: binds

Question: And the binding (Mertk-FLAG (mouse) [4])?
Answer: binds

Question: What about the binding (Mertk-FLAG (mouse) [5]) of the same binder?
Answer: binds

B5: Mertk-FLAG (receptor, UniProt Q60805 19-994)
chain: GGTAEKWEETELDQLFSGPLPGRLPVNHRPFSAPHSSRDQLPPPQTGRSHPAHTAAPQVTSTASKLLPPVAFNHTIGHIVLSEHKNVKFNCSINIPNTYQETAGISWWKDGKELLGAHHSITQFYPDEEGVSIIALFSIASVQRSDNGSYFCKMKVNNREIVSDPIYVEVQGLPYFIKQPESVNVTRNTAFNLTCQAVGPPEPVNIFWVQNSSRVNEKPERSPSVLTVPGLTETAVFSCEAHNDKGLTVSKGVHINIKVIPSPPTEVHILNSTAHSILVSWVPGFDGYSPLQNCSIQVKEADRLSNGSVMVFNTSASPHLYEIQQLQALANYSIAVSCRNEIGWSAVSPWILASTTEGAPSVAPLNITVFLNESNNILDIRWTKPPIKRQDGELVGYRISHVWESAGTYKELSEEVSQNGSWAQIPVQIHNATCTVRIAAITKGGIGPFSEPVNIIIPEHSKVDYAPSSTPAPGNTDSMFIILGCFCGFILIGLILCISLALRRRVQETKFGGAFSEEDSQLVVNYRAKKSFCRRAIELTLQSLGVSEELQNKLEDVVIDRNLLVLGKVLGEGEFGSVMEGNLKQEDGTSQKVAVKTMKLDNFSQREIEEFLSEAACMKDFNHPNVIRLLGVCIELSSQGIPKPMVILPFMKYGDLHTFLLYSRLNTGPKYIHLQTLLKFMMDIAQGMEYLSNRNFLHRDLAARNCMLRDDMTVCVADFGLSKKIYSGDYYRQGRIAKMPVKWIAIESLADRVYTSKSDVWAFGVTMWEITTRGMTPYPGVQNHEMYDYLLHGHRLKQPEDCLDELYDIMYSCWSADPLDRPTFSVLRLQLEKLSESLPDAQDKESIIYINTQLLESCEGIANGPSLTGLDMNIDPDSIIASCTPGAAVSVVTAEVHENNLREERYILNGGNEEWEDVSSTPFAAVTPEKDGVLPEDRLTKNGVSWSHHSTLPLGSPSPDELLFVDDSLEDSEVLM
Question: Which binding (HA-Tim-4 [6]) does the source give for B5 here?
Answer: binds

B6: Mertk (endogenous, peritoneal macrophages) (receptor, UniProt Q60805 19-994)
chain: GGTAEKWEETELDQLFSGPLPGRLPVNHRPFSAPHSSRDQLPPPQTGRSHPAHTAAPQVTSTASKLLPPVAFNHTIGHIVLSEHKNVKFNCSINIPNTYQETAGISWWKDGKELLGAHHSITQFYPDEEGVSIIALFSIASVQRSDNGSYFCKMKVNNREIVSDPIYVEVQGLPYFIKQPESVNVTRNTAFNLTCQAVGPPEPVNIFWVQNSSRVNEKPERSPSVLTVPGLTETAVFSCEAHNDKGLTVSKGVHINIKVIPSPPTEVHILNSTAHSILVSWVPGFDGYSPLQNCSIQVKEADRLSNGSVMVFNTSASPHLYEIQQLQALANYSIAVSCRNEIGWSAVSPWILASTTEGAPSVAPLNITVFLNESNNILDIRWTKPPIKRQDGELVGYRISHVWESAGTYKELSEEVSQNGSWAQIPVQIHNATCTVRIAAITKGGIGPFSEPVNIIIPEHSKVDYAPSSTPAPGNTDSMFIILGCFCGFILIGLILCISLALRRRVQETKFGGAFSEEDSQLVVNYRAKKSFCRRAIELTLQSLGVSEELQNKLEDVVIDRNLLVLGKVLGEGEFGSVMEGNLKQEDGTSQKVAVKTMKLDNFSQREIEEFLSEAACMKDFNHPNVIRLLGVCIELSSQGIPKPMVILPFMKYGDLHTFLLYSRLNTGPKYIHLQTLLKFMMDIAQGMEYLSNRNFLHRDLAARNCMLRDDMTVCVADFGLSKKIYSGDYYRQGRIAKMPVKWIAIESLADRVYTSKSDVWAFGVTMWEITTRGMTPYPGVQNHEMYDYLLHGHRLKQPEDCLDELYDIMYSCWSADPLDRPTFSVLRLQLEKLSESLPDAQDKESIIYINTQLLESCEGIANGPSLTGLDMNIDPDSIIASCTPGAAVSVVTAEVHENNLREERYILNGGNEEWEDVSSTPFAAVTPEKDGVLPEDRLTKNGVSWSHHSTLPLGSPSPDELLFVDDSLEDSEVLM
Question: B6 was tested. Which binding [7] did it give?
Answer: binds

B7: Mertk^Ig (domain or fragment, UniProt Q60805 19-277)
chain: GGTAEKWEETELDQLFSGPLPGRLPVNHRPFSAPHSSRDQLPPPQTGRSHPAHTAAPQVTSTASKLLPPVAFNHTIGHIVLSEHKNVKFNCSINIPNTYQETAGISWWKDGKELLGAHHSITQFYPDEEGVSIIALFSIASVQRSDNGSYFCKMKVNNREIVSDPIYVEVQGLPYFIKQPESVNVTRNTAFNLTCQAVGPPEPVNIFWVQNSSRVNEKPERSPSVLTVPGLTETAVFSCEAHNDKGLTVSKGVHINIKV
Question: Which binding (Tim-4^ECR-FLAG) does the source give for B7 here?
Answer: no binding
